From PubChem BioAssay AID1645882 (National Center for Advancing Translational Sciences (NCATS), 2021)
Out of some 16,000 compounds screened, about 120 (0.75%) were called active. Another 4% or so got no clear call; they are omitted. Calls follow the shape of the dose curve; as a rule, active = well fitted inhibition curve with a large enough effect; inconclusive = small, poorly fitted or top-dose-only effect; inactive = no such curve, though single readings can be large or run the other way. This is one part of the list.

These compounds were tested against Rap guanine nucleotide exchange factor 3 (Homo sapiens) (UniProt O95398) (assay: Validation qHTS for antagonist of cAMP-regulated guanine nucleotide exchange factor 3 (EPAC1)). Details: EPAC1 Rap1B-BODIPY-GDP exchange, fluorescence; series mostly up to 150 µM; activity change, negative = inhibition: at the top concentration.
Summary of the method: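 EPAC1 (100 nM) mixed with 250 nM RAP1B-BODIPY-GDP and 50 uM GDP; compounds in concentration series, 5 min at room temperature. Fluorescence (ex 480/em 540 nm) read every 5 min for 30 min; normalized to ATA control and DMSO.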
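Also: plate controls were DMSO for no effect and ATA control for full effect; nearly all actives have a fitted effect of over 75% in size.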

UniProt O95398, sequence (O95398 whole entry, looked up): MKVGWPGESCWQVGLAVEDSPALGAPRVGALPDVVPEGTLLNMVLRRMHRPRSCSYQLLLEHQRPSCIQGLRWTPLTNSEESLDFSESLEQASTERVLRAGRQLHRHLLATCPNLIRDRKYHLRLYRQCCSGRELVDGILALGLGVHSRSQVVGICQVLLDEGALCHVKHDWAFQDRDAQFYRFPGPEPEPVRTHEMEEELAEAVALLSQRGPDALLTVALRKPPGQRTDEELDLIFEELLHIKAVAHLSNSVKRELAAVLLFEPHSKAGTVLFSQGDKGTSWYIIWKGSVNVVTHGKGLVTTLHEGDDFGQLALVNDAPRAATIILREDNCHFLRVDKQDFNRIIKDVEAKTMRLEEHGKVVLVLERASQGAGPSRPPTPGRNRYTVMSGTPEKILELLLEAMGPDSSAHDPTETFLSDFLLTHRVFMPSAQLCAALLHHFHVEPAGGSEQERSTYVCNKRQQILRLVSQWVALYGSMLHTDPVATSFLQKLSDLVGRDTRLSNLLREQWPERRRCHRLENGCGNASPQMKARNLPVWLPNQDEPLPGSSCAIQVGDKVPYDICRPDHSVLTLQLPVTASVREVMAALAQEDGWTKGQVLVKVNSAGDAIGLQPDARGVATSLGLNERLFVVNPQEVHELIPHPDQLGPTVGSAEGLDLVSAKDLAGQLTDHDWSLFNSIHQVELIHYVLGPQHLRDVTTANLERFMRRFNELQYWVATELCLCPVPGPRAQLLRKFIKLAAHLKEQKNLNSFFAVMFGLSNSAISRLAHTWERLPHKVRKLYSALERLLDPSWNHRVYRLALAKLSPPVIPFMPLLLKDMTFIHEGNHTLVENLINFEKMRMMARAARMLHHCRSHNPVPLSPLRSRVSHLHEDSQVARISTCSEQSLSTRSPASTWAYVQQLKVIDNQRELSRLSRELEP

Activity change, negative = inhibition, inactive:
C[C@]12CCC3c4ccc(OC(=O)c5ccccc5)cc4CCC3C1CCC2=O (stereo partly drawn) 9.41%, COC(=O)[C@@H]1CCCN1C(=O)c1c(OC)cc(=O)n2c1CCN(Cc1ccc3c(c1)CCO3)CC2 11.5%, CCNc1ncc2nc(C)c(=O)n(Cc3cccs3)c2n1 17.9%, Oc1ccc(Cl)c2cccnc12, Cc1ncc2c(c1CNC(=O)c1cncs1)CCN(C(=O)c1ccc(C(C)(C)C)cc1)C2 6.84%, O=C(c1csnn1)N1CCC[C@@]2(CCN(Cc3ccccc3)C2)C1 6.66%, COc1ncc2ncc(=O)n(CCc3ccccc3)c2n1 10.6%, COC(=O)N1CCC2(CCCN(C(=O)Nc3ccccc3)C2)CC1 17.7%, Clc1ccccc1-c1nc(NC2CCNCC2)c2ccccc2n1 17.6%, CCC(=O)c1ccc(O)cc1 9.07%, Cc1ccccc1-c1cc(N(C)C)ncn1 5.11%, O=c1c(-c2ccc(Cl)cc2)nc2cnc(N3CCOCC3)nc2n1C1CC1 25.3%, CN(C)CC(C)(O)c1ccc2c(c1)CN(Cc1cn(C)c3ccccc13)CCO2 (stereo not drawn) 12.7%, Nc1ccc(-c2nc3ccc(-c4nc5ccc(N)cc5[nH]4)cc3[nH]2)cc1 9.13% [at 75.8 µM], O=C(Nc1ccc(O)cc1)c1ccccc1O -10.3%, CS(=O)(=O)CCNCc1ccc(-c2ccc3ncnc(Nc4ccc(OCc5cccc(F)c5)c(Cl)c4)c3c2)o1 19%, Cc1noc(C)c1C(=O)N1CCC[C@@]2(CCN(C(=O)NC(C)C)C2)C1 16.2%, Cn1c(=O)c(-c2ccc(Cl)cc2)nc2cncnc21 22.2%, COc1cc(-c2coc3cc(OC)c(OC)c(OC)c3c2=O)cc(OC)c1OC 9%, COC(=O)CC1C(C)(C)C(OC(C)=O)C2CC3C4CC(=O)OC(c5ccoc5)[C@]4(C)CCC3[C@@]1(C)C2=O (stereo partly drawn) -2.67%, N#CC[C@H](Cc1ccccc1)N1CC[C@@H](O)CCC1=O 4.29%, CC(C)(Sc1cc(C(C)(C)C)c(O)c(C(C)(C)C)c1)Sc1cc(C(C)(C)C)c(O)c(C(C)(C)C)c1, CC(C)Cc1nc2cc(NS(=O)(=O)N(C)C)cc(C(=O)N3CCOc4ccccc4C3)c2n1C 4.07%, COc1cccc(Cn2c(=O)c(C)nc3cnc(N4CCN(C)CC4)nc32)c1 -2.56%, CC(C)C[C@@H](COc1ccccc1)N1CCN(Cc2ccccc2)CCC1=O -15.7%, CCNc1ncc2nc(-c3cc(F)cc(F)c3)c(=O)n(Cc3ccc(F)cc3)c2n1 12.3%, COc1ccc(-n2c(=O)c(C)nc3cnc(Nc4cccc(OC)c4)nc32)cc1 -6.75%, CN(CC1COCCO1)C(=O)c1cnn(-c2ncc3c(n2)-c2ccccc2CC3)c1C1CC1 (stereo not drawn) -12.6%, COCc1c(C(=O)N2CCN(c3ccccc3O)CC2)cnn1-c1nccc(-c2cccs2)n1 1.57%, CC(C)NC(=O)N1CCC2(CC1)CCN(C(=O)c1cccn1C)CC2 14.8%, O=C(NC1CCCCC1)[C@@H]1CC=C[C@@H]2CCN(Cc3ccc(Cl)c(Cl)c3)C(=O)[C@@H]21 -2.52%, COC(=O)CC1C2(C)CC34OC5(C)O[C@@]6(C7/C(=C(/O)C(C)C)C(=O)OC(c8ccoc8)[C@]7(C)C(OC(C)=O)C(OC(C)=O)[C@]6(O5)[C@@]13C)C(OC(C)=O)[C@]4(O)C2OC(=O)C(C)C (stereo partly drawn) -24.5%, COc1ccc(C2c3[nH]c4ccccc4c3CC3C(=O)N(CCc4ccc(OC)c(OC)c4)CC(=O)N32)cc1 (stereo not drawn) -22.9%, O=C(O)CCC(=O)N1CCCC1C(=O)O (stereo not drawn) -2.87% [at 75.8 µM], Clc1ccccc1-c1cc(NCc2ccccc2)ncn1 -9.23%, CC1CN(Cc2cccn2-c2ncccn2)Cc2cc(Cl)ccc2O1 (stereo not drawn) -1.1%, CN1CCc2ccccc2Cc2[nH]c3ccccc3c2CC1, CC(O)(COc1ccccc1)c1ccc2c(c1)CN(Cc1ccc3nsnc3c1)CCO2 (stereo not drawn) -11.2%, C#Cc1cccc(C(=O)NCc2nc(-c3ccccc3NC(C)=O)oc2C)c1 8.96%, O=C(c1ccccc1)[C@@H]1O[C@H]1c1ccc(-c2ccccc2)cc1 4.59%, CCOC(=O)C1CCCN(C(=O)c2cnn(-c3ncc4c(n3)-c3ccccc3CC4)c2C)C1 (stereo not drawn) -13.5%, COc1ccc2c(c1)N(C[C@H](C)CN(C)C)c1ccccc1S2, COC(=O)c1ccccc1O 23.3%, CC(COc1ccccc1)NN (stereo not drawn) 16.6%, Cc1cnc(C)c(-c2cc(F)c3c(c2)CC(CNC(=O)c2cccc(Cn4cccn4)c2)O3)n1 (stereo not drawn) 17.4%, N#Cc1ccc(/C=C2/C=Cc3ccccc32)cc1 29.5%, COc1ccc(CN2CCCC(n3cc(C(=O)NC4CCCC4)nn3)C2)c2ccccc12 (stereo not drawn) -4.88%, COC(=O)N1CCC2(CC1)CN(C(=O)Nc1ccc(OC)cc1)C2 8.73%, Cc1c(C(=O)N2CC3CCC2C3)sc2ncnc(NCCc3c[nH]c4ccccc34)c12 (stereo not drawn) 1.27%, O=Cc1ccnc2ccccc12 -14%, O=C(NC1CC1)[C@@H]1C[C@H](Sc2nc3ccccc3[nH]2)CN1CC1CCCCC1 1.39%, CC[C@H](CC[C@@H](C)[C@H]1CC[C@H]2[C@@H]3CC=C4C[C@@H](O)CC[C@]4(C)[C@H]3CC[C@]12C)C(C)C 13.1%, COc1ccc(CN2CC[C@H]3C=CC[C@@H](C(=O)Nc4ccccc4)[C@H]3C2=O)cc1OC, Cc1cnc(C)c(-c2cccc3c2OC(CNC(=O)/C=C/c2ccc(F)c(F)c2)C3)n1 (stereo not drawn) 12.3%, CCCN(CCC)C(=O)C(CCC(=O)O)NC(=O)c1ccccc1 (stereo not drawn), O=c1cnc2cnc(Oc3cccc(Cl)c3)nc2n1C[C@H]1CCCO1 -0.203%, CCCC[n+]1c(C)ccc2ccccc21 21.4%, COc1ccc(CN2CC[C@H]3C=CC[C@@H](C(=O)Nc4ccc(Cl)cc4Cl)[C@H]3C2=O)cc1OC -13.1%, CCN1C(=O)NC(c2ccccc2)C1=O (stereo not drawn) 3.94% [at 75.8 µM], COc1ccc(CN2CCOc3ccc(CN4CCN(CCO)CC4)cc3C2)c2ccccc12 0.345%, COc1ccccc1CN1CCC2(CC1)CCN(C(=O)c1cccn1C)CC2 30%, COc1cccc(-c2cncnc2NCCN2CCOCC2)c1 -3.64%, CN1CCCC(CC2c3ccccc3Sc3ccccc32)C1 (stereo not drawn) 18% [at 75.8 µM], Cc1nc2cnc(N3CCN(C)CC3)nc2n(CCC#N)c1=O 9.86%, Cc1noc(C)c1-c1nc(Nc2ccc(F)cc2)c2ccccc2n1 19%, COc1ccccc1N1CCN(CC(O)COc2cccc3ccccc23)CC1 (stereo not drawn), CN1CCC(=C2c3ccccc3CC(=O)c3sccc32)CC1, CCCN(CCC)C[C@@H]1CCCCN1CCNC(=O)N1c2ccccc2C(=O)Nc2cccnc21 -10.7%, N#C/C(=C\c1ccc(O)c(O)c1)C(N)=O, CNC(=O)OCc1cccc(COC(=O)NC)n1 9.91%, CC(C)(C)C(=O)OCOP(=O)(COCCn1cnc2c(N)ncnc21)OCOC(=O)C(C)(C)C 7.45%, c1ccc(CNc2ncncc2-c2ccc3c(c2)OCO3)cc1 1.45%, O=C(/C=C/c1ccc(O)c(O)c1)O[C@@H]1C[C@@](O)(C(=O)O)C[C@H](O)[C@@H]1O 15%, CCC1C(=O)NCCN1Cc1ccc2c(c1)CN(Cc1ccc(OC)c(OC)c1)CCO2 (stereo not drawn) 8.54%, O=S(=O)(c1cccc2c(I)cccc12)N1CCCNCC1, CC(=O)NCCc1c[nH]c2ccc(O)cc12, CCCc1nc2cccnc2n1C1CCN(C(=O)Cn2nccc2C)CC1 -12.5%, O=C(C[n+]1cccc2cccc(O)c21)c1ccccc1 -10.1%, O=C1[C@H](Cc2ccccc2)NC/C=C\C[C@H](c2ccco2)N1Cc1ccccc1 -3.42%, CN1CCN(c2ncc3nc(-c4cccs4)c(=O)n(CCc4ccccc4)c3n2)CC1 28.6%, O=C(NCC1Cc2cccc(-c3ncccn3)c2O1)C1CCCO1 (stereo not drawn) 8.4%, Cc1cccc(CNc2cc(-c3cccc(NS(C)(=O)=O)c3)ncn2)c1 19.2%, N#CC(c1ccc(Cl)cc1)c1c(Cl)cc(-n2ncc(=O)[nH]c2=O)cc1Cl (stereo not drawn) -17.6%, O=c1ccc2ccc(O)c(O)c2o1 8.18% [at 75.8 µM], O=S(=O)(NCc1ccccc1Br)c1ccccc1Br -8.39%, OC1(c2cccnc2)CCN(Cc2ccc3c(c2)CN(Cc2ccc(F)c(F)c2)CCO3)CC1 13.2%, COc1ccccc1-c1ccc2ncnc(N(C)C)c2c1 16.1%, CC(C)(O)[C@@H]1CCC[N+]2(C)CCCC[C@H]12 (stereo partly drawn) 28.1%, O=C(c1ccccc1-n1cccn1)N1CCOc2ccc(CN3CCOCC3)cc2C1 20.7%, COc1ccc(-n2c(=O)c(CCc3ccccc3)nc3cnc(N4CCNCC4)nc32)cc1 10.6%, C=Cc1c(C)c2cc3nc(cc4[nH]c(cc5nc(cc1[nH]2)C(C)=C5CCC(=O)OC)c(CCC(=O)O)c4C)[C@@]1(C)C3=CC=C(C(=O)OC)[C@H]1C(=O)OC 5.56%, CN(C)C(=O)c1ccc(-c2nccc(NCc3cccnc3)n2)cc1 13.1%, OC(CN1CCN(c2cccc(Cl)c2)CC1)C(c1ccccc1)c1ccccc1 (stereo not drawn), CC(=O)C[C@H]1c2cc(C(F)(F)F)ccc2S(=O)(=O)N1c1ccccc1 -16.6%, COC1(C)CCC2OC2(C)CCC2C1CC2(C)C (stereo not drawn) 20.5%, Cc1cc(-c2ccnc(-n3ncc(C(=O)NCC(C)(C)N4CCOCC4)c3C)n2)c(C)s1 20.2%, CN(C)c1ccc(/C=C2/CCCc3c2nc2ccccc2c3C(=O)O)cc1 19.8%, Nc1ccc(CCNc2ncnc3c2ncn3C2OC(CO)C(O)C2O)cc1 (stereo not drawn), N[C@@H](C(=O)O)[C@H](CC(=O)O)c1ccc(Cl)cc1 4.02%, C/C(=C\c1ccc(C(=O)O)cc1)c1ccc2c(c1)C(C)(C)CCC2(C)C, OC[C@H]1O[C@@H](n2cnc3c(Nc4ccccc4)ncnc32)[C@H](O)[C@@H]1O 9.87% [at 75.8 µM], CN(C)c1nc2cc(Cl)ccc2cc1CN(Cc1ccc2c(c1)OCO2)C(=O)c1ccoc1 2.91%, C[C@@H]1CN(Cc2ccc3c(c2)CN(Cc2cccc4cccnc24)CCO3)C[C@H](C)O1 7.11%
